Assay results taken from article PMC4975489, “The Arabidopsis Protein Phosphatase PP2C38 Negatively Regulates the Central Immune Kinase BIK1” (PLoS Pathogens, 2016).
Substitutions are numbered along the chain they refer to. Names may count otherwise. These are yes or no findings as the source states them, for the method shown. In cells and extracts the contact can be indirect. Some entries that bind do so weakly or less than the wild type. Tags and fused reporters may be left off the sequences shown.

Protein sequences, listed by entry. Tags and fused reporters are not part of them. Residues count along the entry.
UniProt Q9FL28, residues 24-1173: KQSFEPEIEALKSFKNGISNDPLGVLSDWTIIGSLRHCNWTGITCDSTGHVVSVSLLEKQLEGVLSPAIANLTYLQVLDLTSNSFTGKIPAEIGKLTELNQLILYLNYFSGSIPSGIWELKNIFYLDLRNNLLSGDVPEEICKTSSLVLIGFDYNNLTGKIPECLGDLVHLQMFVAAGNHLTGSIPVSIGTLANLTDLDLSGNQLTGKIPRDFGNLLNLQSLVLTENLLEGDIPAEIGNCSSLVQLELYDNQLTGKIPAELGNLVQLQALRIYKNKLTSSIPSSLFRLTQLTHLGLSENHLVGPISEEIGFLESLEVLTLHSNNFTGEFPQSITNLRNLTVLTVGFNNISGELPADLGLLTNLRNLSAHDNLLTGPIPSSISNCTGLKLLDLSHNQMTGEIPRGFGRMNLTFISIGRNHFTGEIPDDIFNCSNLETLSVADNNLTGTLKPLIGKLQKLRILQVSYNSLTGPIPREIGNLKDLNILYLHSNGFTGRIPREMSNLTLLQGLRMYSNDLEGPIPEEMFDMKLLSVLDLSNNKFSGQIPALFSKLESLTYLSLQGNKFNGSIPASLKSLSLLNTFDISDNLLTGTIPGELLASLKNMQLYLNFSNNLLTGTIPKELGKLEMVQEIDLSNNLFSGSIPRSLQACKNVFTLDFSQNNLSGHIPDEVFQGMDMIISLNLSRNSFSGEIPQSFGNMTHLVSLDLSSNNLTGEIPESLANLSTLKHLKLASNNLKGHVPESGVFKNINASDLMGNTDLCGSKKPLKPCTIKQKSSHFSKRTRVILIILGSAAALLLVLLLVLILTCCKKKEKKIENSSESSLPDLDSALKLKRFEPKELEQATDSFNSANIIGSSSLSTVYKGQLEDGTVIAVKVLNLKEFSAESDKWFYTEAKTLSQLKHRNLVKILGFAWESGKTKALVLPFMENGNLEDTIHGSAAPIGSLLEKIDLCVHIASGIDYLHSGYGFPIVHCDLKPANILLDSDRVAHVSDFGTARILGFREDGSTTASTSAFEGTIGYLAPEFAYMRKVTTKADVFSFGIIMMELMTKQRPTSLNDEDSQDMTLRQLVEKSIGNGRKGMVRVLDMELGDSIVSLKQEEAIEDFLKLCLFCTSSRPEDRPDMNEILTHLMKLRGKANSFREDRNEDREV
UniProt C0LGT6, residues 25-1031: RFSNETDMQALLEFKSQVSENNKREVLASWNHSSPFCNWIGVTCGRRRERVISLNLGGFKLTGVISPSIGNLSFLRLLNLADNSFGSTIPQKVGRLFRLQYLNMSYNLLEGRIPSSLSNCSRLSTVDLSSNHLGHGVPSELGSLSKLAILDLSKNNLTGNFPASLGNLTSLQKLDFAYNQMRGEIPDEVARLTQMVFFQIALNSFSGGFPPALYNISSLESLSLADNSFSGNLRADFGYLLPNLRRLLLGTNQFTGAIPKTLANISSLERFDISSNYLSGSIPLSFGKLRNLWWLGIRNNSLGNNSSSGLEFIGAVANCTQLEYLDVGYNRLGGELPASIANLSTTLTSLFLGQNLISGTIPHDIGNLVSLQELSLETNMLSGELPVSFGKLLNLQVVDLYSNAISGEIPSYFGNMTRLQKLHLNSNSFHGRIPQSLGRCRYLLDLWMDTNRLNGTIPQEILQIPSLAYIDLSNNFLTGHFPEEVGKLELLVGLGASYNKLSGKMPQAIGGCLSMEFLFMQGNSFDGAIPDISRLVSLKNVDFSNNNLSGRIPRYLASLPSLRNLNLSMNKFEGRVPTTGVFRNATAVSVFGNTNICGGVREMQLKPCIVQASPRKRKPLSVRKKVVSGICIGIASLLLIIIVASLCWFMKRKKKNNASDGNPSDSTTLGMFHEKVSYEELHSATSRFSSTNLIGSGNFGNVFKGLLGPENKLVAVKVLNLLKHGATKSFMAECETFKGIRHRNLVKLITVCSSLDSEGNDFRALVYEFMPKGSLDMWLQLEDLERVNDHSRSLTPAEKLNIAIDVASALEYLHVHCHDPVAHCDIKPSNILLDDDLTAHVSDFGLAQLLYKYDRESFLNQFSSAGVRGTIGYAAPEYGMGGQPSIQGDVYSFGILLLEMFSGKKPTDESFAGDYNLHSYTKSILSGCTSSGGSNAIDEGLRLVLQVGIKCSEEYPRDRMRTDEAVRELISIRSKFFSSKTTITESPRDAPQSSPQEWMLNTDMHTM

Assays:
[1] = target: T1, PP2C38-GFP (stable transgenic Arabidopsis line) (Arabidopsis thaliana) (UniProt Q9LHJ9); experiment: co-IP; as a4, seedlings treated with 1 μM flg22 for 20 min
T1 sequence: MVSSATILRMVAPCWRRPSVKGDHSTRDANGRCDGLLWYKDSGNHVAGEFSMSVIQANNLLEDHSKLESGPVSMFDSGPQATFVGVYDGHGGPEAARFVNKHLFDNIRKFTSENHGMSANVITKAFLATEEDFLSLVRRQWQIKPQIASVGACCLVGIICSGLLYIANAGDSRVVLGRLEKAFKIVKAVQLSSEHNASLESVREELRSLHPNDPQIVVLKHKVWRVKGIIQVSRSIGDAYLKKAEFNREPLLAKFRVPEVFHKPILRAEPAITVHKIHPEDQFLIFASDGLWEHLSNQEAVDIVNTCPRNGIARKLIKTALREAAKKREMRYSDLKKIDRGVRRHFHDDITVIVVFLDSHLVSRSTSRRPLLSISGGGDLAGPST

[2] = target: T1, PP2C38-GFP (stable transgenic Arabidopsis line) (Arabidopsis thaliana); experiment: co-IP; stable transgenic Arabidopsis seedlings (T3) expressing PP2C38-GFP, mock-treated; PP2C38-GFP immunoprecipitates, native FLS2 detected with α-FLS2
[3] = target: T2, BIK1-FLAG (Arabidopsis thaliana) (UniProt O48814); experiment: co-IP; as a6, the samples from protoplasts treated with 1 μM flg22 for 30 min
T2 sequence: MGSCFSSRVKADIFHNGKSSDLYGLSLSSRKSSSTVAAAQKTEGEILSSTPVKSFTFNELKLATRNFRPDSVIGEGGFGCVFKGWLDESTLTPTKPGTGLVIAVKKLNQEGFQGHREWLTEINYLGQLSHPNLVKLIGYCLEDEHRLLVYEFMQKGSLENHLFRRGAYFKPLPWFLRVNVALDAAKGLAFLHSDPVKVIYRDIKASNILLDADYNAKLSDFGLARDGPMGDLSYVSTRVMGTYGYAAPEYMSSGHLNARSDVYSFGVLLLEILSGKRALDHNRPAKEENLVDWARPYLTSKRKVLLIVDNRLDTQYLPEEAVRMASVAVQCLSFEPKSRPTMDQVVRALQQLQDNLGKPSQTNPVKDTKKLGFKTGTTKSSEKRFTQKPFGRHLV

[4] = target: T2, BIK1-FLAG (Arabidopsis thaliana); experiment: co-IP; Arabidopsis Col-0 protoplasts co-transfected, treated or not with 1 μM elf18 or flg22 for 15-30 min; α-FLAG immunoprecipitation, immunoblot
[5] = target: T3, BIK1-GFP (Arabidopsis thaliana) (UniProt O48814); experiment: co-IP; as a2, the samples from N. benthamiana leaves treated with 100 nM flg22 for 20 min
T3 sequence: T2 sequence

[6] = target: FLS2-GFP (Arabidopsis thaliana) (UniProt Q9FL28); experiment: as above
[7] = target: T4, BAK1-GFP (Arabidopsis thaliana) (UniProt Q94F62); experiment: co-IP; proteins transiently co-expressed in N. benthamiana leaves, treated or not with 100 nM elf18 or flg22 for 20 min; GFP-Trap immunoprecipitation at 4°C, immunoblot
T4 sequence: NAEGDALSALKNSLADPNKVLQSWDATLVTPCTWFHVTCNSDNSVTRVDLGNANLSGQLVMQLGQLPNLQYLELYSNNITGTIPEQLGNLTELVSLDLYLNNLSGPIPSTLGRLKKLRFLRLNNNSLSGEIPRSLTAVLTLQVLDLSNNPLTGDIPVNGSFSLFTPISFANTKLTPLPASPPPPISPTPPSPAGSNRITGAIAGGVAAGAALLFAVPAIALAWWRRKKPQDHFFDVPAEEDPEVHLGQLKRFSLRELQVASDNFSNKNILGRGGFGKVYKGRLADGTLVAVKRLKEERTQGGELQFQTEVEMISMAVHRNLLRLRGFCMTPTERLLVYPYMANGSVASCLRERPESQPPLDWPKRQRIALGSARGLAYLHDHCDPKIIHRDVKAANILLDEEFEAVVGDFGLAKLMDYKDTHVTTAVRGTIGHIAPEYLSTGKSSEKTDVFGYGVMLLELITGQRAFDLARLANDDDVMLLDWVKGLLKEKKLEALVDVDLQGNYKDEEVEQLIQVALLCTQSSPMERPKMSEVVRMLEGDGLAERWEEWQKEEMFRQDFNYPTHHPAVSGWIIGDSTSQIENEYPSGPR

[8] = target: T3, BIK1-GFP (Arabidopsis thaliana); experiment: as above
[9] = target: FLS2-GFP (Arabidopsis thaliana) (UniProt Q9FL28); experiment: as above
[10] = target: full-length EFR-GFP (Arabidopsis thaliana) (UniProt C0LGT6); experiment: as above
[11] = target: T5, PP2C38-FLAG (expressed in Arabidopsis protoplasts) (Arabidopsis thaliana) (UniProt Q9LHJ9); experiment: co-IP; Arabidopsis Col-0 protoplasts co-transfected, treated or not with 1 μM elf18 or flg22 for 15-30 min; α-FLAG immunoprecipitation, immunoblot
T5 sequence: T1 sequence

endogenous FLS2 (native FLS2 protein) (from UniProt Q9FL28 24-1173) (receptor)
binding [1]: no binding (condition: after 1 μM flg22 for 20 min) | binding [2]: binds

B1: PP2C38-HA (enzyme, UniProt Q9LHJ9 1-385)
chain: T1 sequence
binding [3]: no binding (condition: after 1 μM flg22 for 30 min) | binding [4]: binds

B2: PP2C38^S77A-HA (enzyme, UniProt Q9LHJ9 1-385)
chain: T1 sequence with S77A
binding [4]: binds

B3: PP2C38-FLAG (expressed in N. benthamiana) (enzyme, UniProt Q9LHJ9 1-385)
chain: T1 sequence
binding [5]: no binding (condition: after 100 nM flg22 for 20 min) | binding [6]: no binding (condition: after 100 nM flg22 for 20 min) | binding [7]: no binding | binding [8]: binds | binding [9]: binds | binding [10]: binds

B4: endogenous BAK1 (receptor, UniProt Q94F62 26-615)
chain: T4 sequence
binding [11]: no binding
